The source gives no read counts; variants with many changes may rest on few reads.
B1: LINE1-mini (parent)
chain: GGCAGAGCUCAACACAGCGUGGCAAAGUGGCUGUGGCUAGACUGCC

Variants of: B1
Experiment: self-cleavage, relative activity (ratio to wild type); higher = more cleavage; in vitro, sequencing; the parent is a self-cleaving ribozyme

Q: With GGCAGAGCUCAACACAGAGAAGCAAAGUGGCUGUGGCUAGACUGCC [C18A U20A G21A] as the variant, how does the self-cleavage read?
A: 1.61

Q: For GGCAGAGCUCAACACAGGGUGGUAAAGUAGCUGUGGCUAGACUGCC [C18G C23U G29A], which self-cleavage is on record?
A: 0.21

Q: With GGCAGAGCUCAACACAGGGUGGCAAAGUGGUUGUGCCUACACUGCU [C18G C31U G36C G40C C46U] as the variant, how does the self-cleavage read?
A: 0.05

Q: For GGCAGAGCUCAACACAGAGUGGCAAAGUCCCUGUAGCUAGACUGCC [C18A G29C G30C G35A], which self-cleavage is on record?
A: 0.02

Q: For GGCAGAGCUCAACACAGAGGGGGAAAGUGGCUGUGGCUAGACUGCC [C18A U20G C23G], which self-cleavage is on record?
A: 0.21

Q: With GGCAGAGCUCAACACAGAGUGGCAAAGGGGCUGUGGAUGGACUGCC [C18A U28G C37A A39G] as the variant, how does the self-cleavage read?
A: 0.05

Q: Which self-cleavage does the source give for GGCAGAGCUCAACACAGGGUGGAAAAGUGGCUGUGCCUAGACUCCC [C18G C23A G36C G44C] here?
A: 0.01

Q: Which self-cleavage does the source give for GGCAGAGCUCAACACAGAGUGGCAAAGUGACUUUGUCUAGAUUGCC [C18A G30A G33U G36U C42U] here?
A: 0.03

Q: For GGCAGAGCUCAACACAGAGUGGCAAAGUGUCUCUGGCUGCACUGGC [C18A G30U G33C A39G G40C C45G], which self-cleavage is on record?
A: 0.01

Q: For GGCAGAGCUCAACACAGAGUGGCAAAGUGUCAGUGGCUAGACUGCC [C18A G30U U32A], which self-cleavage is on record?
A: 0.04

Q: Which self-cleavage does the source give for GGCAGAGCUCAACACAGGGUGGCAAAGUGGCUGUGGAUAUACUGCC [C18G C37A G40U] here?
A: 0.06

Q: For GGCAGAGCUCAACACAGGGUGACAAAGUGGCUGUGGCUAGACUUCC [C18G G22A G44U], which self-cleavage is on record?
A: 0.04

Q: For GGCAGAGCUCAACACAGGGUUGCAAAGUGGAUGUGGCAAGACUACC [C18G G21U C31A U38A G44A], which self-cleavage is on record?
A: 0.12

Q: With GGCAGAGCUCAACACAGGAUGGCAAACUAGCUGUCGCUAGACUGCC [C18G G19A G27C G29A G35C] as the variant, how does the self-cleavage read?
A: 0.04

Q: For GGCAGAGCUCAACACAGAGUGGCAAAGUGCCUGCGGCUAGACUGCC [C18A G30C U34C], which self-cleavage is on record?
A: 0.01

Q: Which self-cleavage does the source give for GGCAGAGCUCAACACAGGGUAUCAAAGUGGCUGUGGCCAGACUGCG [C18G G21A G22U U38C C46G] here?
A: 0.05

Q: Which self-cleavage does the source give for GGCAGAGCUCAACACAGAGUGGCAAAGUGGCUGUUACUAGACUGCC [C18A G35U G36A] here?
A: 0.06

Q: With GGCAGAGCUCAACACAGGGUUGCAAAGUCGCUGUGGCUAGACUGCC [C18G G21U G29C] as the variant, how does the self-cleavage read?
A: 2.75

Q: Which self-cleavage does the source give for GGCAGAGCUCAACACAGGGUCUCAAAGUGGCUGUGGCUAGACUGCC [C18G G21C G22U] here?
A: 0.11

Q: With GGCAGAGCUCAACACAGAGUGGCAAAGUGGCUGUGGCUACACUUCC [C18A G40C G44U] as the variant, how does the self-cleavage read?
A: 0.01

Q: Which self-cleavage does the source give for GGCAGAGCUCAACACAGAGUGGCAAAGUGAAUGUGGCUAGACUGCC [C18A G30A C31A] here?
A: 0.04

Q: Which self-cleavage does the source give for GGCAGAGCUCAACACAGAGUGGCAAAGUGAGUGUGGCUAGACUGCC [C18A G30A C31G] here?
A: 0.07

Q: Which self-cleavage does the source give for GGCAGAGCUCAACACAGAGUGGCAAACUGGCUGUGGCUAUACUGCC [C18A G27C G40U] here?
A: 0.04

Q: Which self-cleavage does the source give for GGCAGAGCUCAACACAGGGUGGUAAAGUGGCUGUGGUUAGACUGCC [C18G C23U C37U] here?
A: 0.05

Q: With GGCAGAGCUCAACACAGGCUGGCAAAGUGGCUGUGGAUAGACUGCC [C18G G19C C37A] as the variant, how does the self-cleavage read?
A: 0.04

Q: For GGCAGAGCUCAACACAGAGUGGCAAAGUGGCUGCAGCGAGACUGCU [C18A U34C G35A U38G C46U], which self-cleavage is on record?
A: 0.05

Q: Which self-cleavage does the source give for GGCAGAGCUCAACACAGGAUGGCAAAGCUGUUGUGGCUAGAUUGCC [C18G G19A U28C G29U C31U C42U] here?
A: 0.12

Q: For GGCAGAGCUCAACACAGGGUAGCAAAGUGGCUGUGUCUAGACUGCC [C18G G21A G36U], which self-cleavage is on record?
A: 0.1

Q: Which self-cleavage does the source give for GGCAGAGCUCAACACAGAGUGGCAAAGAGGCUGUGGCUAGACUGCG [C18A U28A C46G] here?
A: 0.06

Q: For GGCAGAGCUCAACACAGAGUGGCAAAGUGGCUGGGGCUUGACUGUC [C18A U34G A39U C45U], which self-cleavage is on record?
A: 0.03

Q: With GGCAGAGCUCAACACAGAGUGGCAAAGUGGCUGUGAUUAGACUGCC [C18A G36A C37U] as the variant, how does the self-cleavage read?
A: 0.11

Q: For GGCAGAGCUCAACACAGAGUGGCAAAGUGGCUGUGAAUAGACUGCC [C18A G36A C37A], which self-cleavage is on record?
A: 0.04

Q: For GGCAGAGCUCAACACAGGGUUCCGAAGUGCCUGUGACUAGACUGCC [C18G G21U G22C A24G G30C G36A], which self-cleavage is on record?
A: 0.11

Q: Which self-cleavage does the source give for GGCAGAGCUCAACACAGAGUGGCAAAGUGGCUGAGGCUAGACAGCC [C18A U34A U43A] here?
A: 0.06

Q: With GGCAGAGCUCAACACAGAGUGGCAAAGUGCCUGUGGCAAAACUGCC [C18A G30C U38A G40A] as the variant, how does the self-cleavage read?
A: 0.14

Q: Which self-cleavage does the source give for GGCAGAGCUCAACACAGAGGGGCAAAGUGGUUGUGGCUAGACUGCC [C18A U20G C31U] here?
A: 0.14

Q: For GGCAGAGCUCAACACAGAGUGGCAAAGUAGCUGUUGCGAGACUGCC [C18A G29A G35U U38G], which self-cleavage is on record?
A: 0.01

Q: For GGCAGAGCUCAACACAGGGUGGCAAGGUGGCUGUGGCUGGACUACC [C18G A26G A39G G44A], which self-cleavage is on record?
A: 0.05

Q: Which self-cleavage does the source give for GGCAGAGCUCAACACAGGGUGGCACAGCGGCGGGGGCUUGACUGCC [C18G A25C U28C U32G U34G A39U] here?
A: 0.02

Q: With GGCAGAGCUCAACACAGGGUGGCUAAGUGUCUGUGGCUUGACUGCC [C18G A24U G30U A39U] as the variant, how does the self-cleavage read?
A: 0.6

Q: Which self-cleavage does the source give for GGCAGAGCUCAACACAGGGUGGCAAAGUGGCUGUGGCUAGGCUGCA [C18G A41G C46A] here?
A: 0.01

Q: With GGCAGAGCUCAACACAGAGUGGCAAAGUGGCUGUAGCUAUACUGCC [C18A G35A G40U] as the variant, how does the self-cleavage read?
A: 0.04

Q: Which self-cleavage does the source give for GGCAGAGCUCAACACAGAGUGGCAAAGUGGCUGCGGCUAGCCUGCC [C18A U34C A41C] here?
A: 0.08

Q: With GGCAGAGCUCAACACAGAGUGGCAAAGUGGCUUUGGAUAGACUACC [C18A G33U C37A G44A] as the variant, how does the self-cleavage read?
A: 0.02

Q: With GGCAGAGCUCAACACAGGGUGGCAUAGUGGCUGUUGCGAGACUGCC [C18G A25U G35U U38G] as the variant, how does the self-cleavage read?
A: 0.05

Q: With GGCAGAGCUCAACACAGAGUGGCAAAGUGGCUGUUGCUAGACGGCC [C18A G35U U43G] as the variant, how does the self-cleavage read?
A: 0.05

Q: Which self-cleavage does the source give for GGCAGAGCUCAACACAGGGUGGCAAAGUGGCUGUGGGUAGACUGAU [C18G C37G C45A C46U] here?
A: 0.06

Q: With GGCAGAGCUCAACACAGAGUGGCAAAGUGGCUGUGGCCAGACUGGC [C18A U38C C45G] as the variant, how does the self-cleavage read?
A: 0.03

Q: With GGCAGAGCUCAACACAGGGUGCCAAAGUGGCUUUGGCUAGACUGCC [C18G G22C G33U] as the variant, how does the self-cleavage read?
A: 0.03

Q: With GGCAGAGCUCAACACAGGCUGGCAAAGUGGCUGUGGCUAGGCUGAU [C18G G19C A41G C45A C46U] as the variant, how does the self-cleavage read?
A: 0.03

Q: With GGCAGAGCUCAACACAGAGUGGCAAAGGGACUGUGGCUAGACUGCC [C18A U28G G30A] as the variant, how does the self-cleavage read?
A: 1.63

Q: For GGCAGAGCUCAACACAGGGUGGCAUAGUGGCUGUGGCCAGACUGCC [C18G A25U U38C], which self-cleavage is on record?
A: 0.11

Q: Which self-cleavage does the source give for GGCAGAGCUCAACACAGAGUGGCAAAGCGGCUCUGGCGAGACUGCC [C18A U28C G33C U38G] here?
A: 0

Q: With GGCAGAGCUCAACACAGAGAGGAAACGUGGCCGUCGCUAGACUGCC [C18A U20A C23A A26C U32C G35C] as the variant, how does the self-cleavage read?
A: 0.04

Q: With GGCAGAGCUCAACACAGGGUGGCAACGAGGGUGUGGCUAGACUGGC [C18G A26C U28A C31G C45G] as the variant, how does the self-cleavage read?
A: 0.04

Q: For GGCAGAGCUCAACACAGAGUGGCAAAGUGGCUGUGUCGAGACUGUC [C18A G36U U38G C45U], which self-cleavage is on record?
A: 0.02

From the RNAGym collection of RNA variant scans (doi:10.7554/elife.90254)
